Results from PubChem BioAssay (Tox21).
The inconclusive results got no clear call from the source; some entries with a clear call stand among them for comparison. Where a call stands in place of a potency, no number is given. For some assays here: Potencies of inconclusive entries are doubtful fits and often do not repeat. Activity calls are given as the source filed them. Unless noted, calls come from the whole dose curve; as a rule, active = well fitted curve in the direction sought with a large enough effect in the repeat runs; inconclusive = weak or mixed curves; inactive = no such curve, though single readings can be large; an effect the other way counts as inactive or inconclusive.

Key:
[1] = target: Progesterone receptor (Homo sapiens) (UniProt P06401); assay: qHTS assay to identify small molecule antagonists of the progesterone receptor (PR) signaling pathway (AID 1346795; active = well fitted inhibition curve with a large enough effect in the signal ratio in the repeat runs, not every such curve was filed as active; inconclusive = weak or mixed curves; the % refers to the signal ratio); settings: PR-UAS-bla HEK293T, beta-lactamase FRET ratio, 16 h; activity change, negative = inhibition: at 92.4 µM (top of the series) unless noted
How it was run: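 Inhibition of R5020-induced (1 nM final) beta-lactamase reporter signal in PR-UAS-bla HEK293T cells was scored by FRET fluorescence after overnight (16 hr) compound treatment.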

[2] = qHTS assay to identify small molecule agonists of the progesterone receptor (PR) signaling pathway - cell viability counter screen (AID 1346799; calls by dose curve; note: nearly all actives have a fitted effect of over 45% in size; note: potency is the fitted concentration of half-maximal effect)
How it was run: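 Cytotoxicity in PR-bla HEK293T cells: 16 h compound, 37C; CellTiter-Glo added post-FRET read; luminescence after 30 min RT.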

[3] = qHTS assay to identify small molecule antagonists of the TGF-beta/Smad signaling pathway (AID 1346924; active = well fitted inhibition curve with a large enough effect in the signal ratio in the repeat runs, not every such curve was filed as active; inconclusive = weak or mixed curves; the % refers to the signal ratio); settings: SBE-bla HEK293T, TGF-beta/Smad reporter, beta-lactamase ratio; activity, negative = inhibition: at 76.8 µM (top of the series) unless noted
How it was run: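 SBE-bla HEK 293T cells were plated overnight, then received compound in DMSO plus TGF-beta1 (added as a 0.25 ng/mL solution) and were incubated 5 h at 37 C. Beta-lactamase reporter activity was read after 2 h at room temperature with LiveBLAzer B/G FRET substrate (ex 405, em 460/530 nm).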

[4] = qHTS assay to identify small molecule agonists of the farnesoid-X-receptor (FXR) signaling pathway - cell viability counter screen (AID 743218); settings: FXR-bla HEK293T viability, CellTiter-Glo luminescence, 16 h; viability change, negative = cytotoxic: at 62.6 µM (top of the series) unless noted; note: potency is the fitted concentration of half-maximal effect; nearly all actives have a fitted effect of over 45% in size
How it was run: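 Cytotoxicity counter-screen run in parallel, same wells: FXR-UAS-bla HEK 293T cells dosed 16 h at 37 C, viability read by CellTiter-Glo luminescence after 30 min at room temperature.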

[5] = qHTS assay to identify small molecule agonists of the TGF-beta/Smad signaling pathway (AID 1346859; active = well fitted activation curve with a large enough effect in the signal ratio in the repeat runs, not every such curve was filed as active; inconclusive = weak or mixed curves; the % refers to the signal ratio; note: potency is the fitted concentration of half-maximal effect)
How it was run: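 Stable Smad binding element-beta-lactamase HEK 293T cells; 5 hr compound exposure at 37 C under 5% CO2; 2 hr room-temperature substrate step; fluorescence excited at 405 nm, collected at 460 nm and 530 nm.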

[6] = Caspase-3/7 induction in HepG2 cells by small molecules, qHTS cell viability counter screen (AID 1346981); note: nearly all actives have a fitted effect of over 30% in size
How it was run: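 Steps: seed 2,000 HepG2 cells per well; incubate 5 hr at 37 C; pin-add compounds in DMSO; incubate 16 hr; add CellTiter-Fluor; after 1 hr at 37 C and 5% CO2, read fluorescence.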

[7] = qHTS assay to identify small molecule antagonists of the estrogen receptor beta (ER-beta) signaling pathway - cell viability counter screen (AID 1259382);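 note: HEK293T cells carrying ER-beta-UAS-bla reporter stimulated with estradiol; nearly all actives have a fitted effect of over 55% in size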
How it was run: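 Following a 6 hr plating period, HEK293T cells carrying a UAS-driven beta-lactamase reporter under ER-beta control received compounds and 1nM E2 (final). After 16 hr at 37C and 2 hr substrate loading, CellTiter-Glo luminescence indicated viability.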

[8] = qHTS assay to identify small molecule antagonists of the progesterone receptor (PR) signaling pathway - cell viability counter screen (AID 1346798); note: nearly all actives have a fitted effect of over 50% in size
How it was run: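 ATP content as viability readout: CellTiter-Glo luminescence, 30 min room temperature, in PR-UAS-bla HEK293T cells after 16 hr compound/R5020 treatment at 37C and 5% CO2.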

[9] = target: Cytochrome P450 2C19 (Homo sapiens) (UniProt P33261); assay: Cytochrome P450 Family 2 Subfamily C Member 19 (CYP2C19) small molecule antagonists: luciferase reporter qHTS assay (AID 1671197); note: nearly all actives have a fitted effect of over 65% in size
How it was run: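 Quantitative high-throughput screen of the Tox21 library using CYP2C19 with proluciferin substrate. Reaction: NADPH regeneration, 37C, 1 h, after 10 min compound preincubation at room temperature. Readout: luminescence.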

[10] = qHTS assay for small molecule activators of the heat shock response signaling pathway (AID 743210; active = well fitted activation curve with a large enough effect in the signal ratio in the repeat runs, with a control signal flat, not every such curve was filed as active; inconclusive = weak or mixed curves; the % refers to the signal ratio;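 note: HeLa cells with beta-lactamase reporter driven by heat shock elements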); settings: HeLa HSE-bla reporter, beta-lactamase ratio, 5 h; activation: at 62.6 µM (top of the series) unless noted
How it was run: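 Reporter gene assay: HeLa cells stably bearing an HSE-bla construct, compound treatment 5 h at 37 C, LiveBLAzer substrate 2.5 h at RT, fluorescence intensity.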

[11] = qHTS assay to identify small molecule agonists of the peroxisome proliferator-activated receptor delta (PPARd) signaling pathway - cell viability counter screen (AID 743211); settings: PPARd-bla HEK293H viability, CellTiter-Glo luminescence, 17 h; activity change, negative = cytotoxicity: at 62.6 µM (top of the series) unless noted; note: potency is the fitted concentration of half-maximal effect; nearly all actives have a fitted effect of over 55% in size
How it was run: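 Following 5 h plating at 37 C and 5% CO2, PPARd UAS-bla HEK293H cells took up test compounds for 17 h. Viability was quantified by luminescence 30 min after CellTiter-Glo addition at room temperature.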

[12] = target: Peroxisome proliferator-activated receptor delta (Homo sapiens) (UniProt Q03181); assay: qHTS assay to identify small molecule agonists of the peroxisome proliferator-activated receptor delta (PPARd) signaling pathway (AID 743212; calls by dose curve;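 note: HEK293H cells with PPARd UAS beta-lactamase reporter GeneBLAzer system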); settings: HEK293H PPARd-UAS-bla, beta-lactamase FRET ratio, 17 h; activation: at 62.6 µM (top of the series) unless noted
How it was run: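 A PPARd-bla HEK293H line with beta-lactamase under an Upstream Activator Sequence is treated with compounds at 37 C. Substrate loading for 2 h at room temperature precedes the fluorescence measurement.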

[13] = qHTS assay for small molecules that induce genotoxicity in human embryonic kidney cells expressing luciferase-tagged ATAD5 (AID 651632); note: nearly all actives have a fitted effect of over 15% in size
How it was run: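 Increased luciferase signal from ATAD5-tagged reporter cells indicates DNA-damage-driven ATAD5 induction. HEK293T cells are treated for 16 hr at 37C before detection with Amplite.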
Tags give direction and shape of the fitted curve or compound fluorescence and quenching.

Chain of UniProt P06401 (P06401 whole entry, looked up): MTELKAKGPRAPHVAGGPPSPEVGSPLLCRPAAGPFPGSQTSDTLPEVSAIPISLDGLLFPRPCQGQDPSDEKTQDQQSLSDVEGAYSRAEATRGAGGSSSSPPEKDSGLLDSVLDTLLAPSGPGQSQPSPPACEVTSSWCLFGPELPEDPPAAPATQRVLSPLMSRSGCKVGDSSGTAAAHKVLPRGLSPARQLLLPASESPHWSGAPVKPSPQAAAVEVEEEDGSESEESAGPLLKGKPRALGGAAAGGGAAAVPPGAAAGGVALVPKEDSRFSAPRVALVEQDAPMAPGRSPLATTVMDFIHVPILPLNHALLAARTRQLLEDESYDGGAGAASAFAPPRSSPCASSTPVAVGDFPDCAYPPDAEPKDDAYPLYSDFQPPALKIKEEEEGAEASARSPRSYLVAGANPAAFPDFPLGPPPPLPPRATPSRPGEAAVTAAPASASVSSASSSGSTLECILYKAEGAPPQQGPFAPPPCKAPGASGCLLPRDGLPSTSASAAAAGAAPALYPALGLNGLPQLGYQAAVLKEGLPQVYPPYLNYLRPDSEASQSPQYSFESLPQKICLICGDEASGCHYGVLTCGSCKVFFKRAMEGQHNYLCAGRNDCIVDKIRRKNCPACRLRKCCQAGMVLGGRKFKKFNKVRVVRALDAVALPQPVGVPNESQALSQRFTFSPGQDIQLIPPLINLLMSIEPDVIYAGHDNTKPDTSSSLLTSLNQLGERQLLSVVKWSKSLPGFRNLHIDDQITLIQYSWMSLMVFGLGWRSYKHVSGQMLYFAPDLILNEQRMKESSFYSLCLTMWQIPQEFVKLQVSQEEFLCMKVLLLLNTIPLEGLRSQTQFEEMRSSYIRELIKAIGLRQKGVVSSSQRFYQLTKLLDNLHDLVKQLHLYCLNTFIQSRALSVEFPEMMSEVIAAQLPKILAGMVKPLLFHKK
Chain of UniProt Q03181 (Q03181 whole entry, looked up): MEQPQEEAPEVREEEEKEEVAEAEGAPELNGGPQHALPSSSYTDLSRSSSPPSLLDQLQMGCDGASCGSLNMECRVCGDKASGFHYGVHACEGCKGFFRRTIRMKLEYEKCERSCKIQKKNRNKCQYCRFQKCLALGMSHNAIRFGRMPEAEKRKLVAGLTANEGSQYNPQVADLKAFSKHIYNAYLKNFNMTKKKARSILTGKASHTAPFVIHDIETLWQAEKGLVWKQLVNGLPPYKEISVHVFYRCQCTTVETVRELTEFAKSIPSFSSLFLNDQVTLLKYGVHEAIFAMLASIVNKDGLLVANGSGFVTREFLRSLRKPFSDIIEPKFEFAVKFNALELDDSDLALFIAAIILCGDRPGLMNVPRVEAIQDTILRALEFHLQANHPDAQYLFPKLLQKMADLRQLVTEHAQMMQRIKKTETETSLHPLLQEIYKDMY
Chain of UniProt P33261 (P33261 whole entry, looked up): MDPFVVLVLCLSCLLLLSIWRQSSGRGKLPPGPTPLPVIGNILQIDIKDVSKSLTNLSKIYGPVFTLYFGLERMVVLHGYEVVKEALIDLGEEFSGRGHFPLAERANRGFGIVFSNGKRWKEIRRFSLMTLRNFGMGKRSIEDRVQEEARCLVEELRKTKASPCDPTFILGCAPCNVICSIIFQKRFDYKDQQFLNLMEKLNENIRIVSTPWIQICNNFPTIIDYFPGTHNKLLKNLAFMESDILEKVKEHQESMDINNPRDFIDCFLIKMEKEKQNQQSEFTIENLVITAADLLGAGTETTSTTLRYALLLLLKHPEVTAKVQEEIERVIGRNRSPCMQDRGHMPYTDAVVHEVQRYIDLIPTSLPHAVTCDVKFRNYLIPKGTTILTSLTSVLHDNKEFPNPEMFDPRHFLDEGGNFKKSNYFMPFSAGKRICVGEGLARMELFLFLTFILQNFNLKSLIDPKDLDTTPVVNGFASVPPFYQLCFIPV

Question: Which results are given for `CC(C)Cn1cnc2c1c(=O)n(C)c(=O)n2C`?
Answer: Potency [1]: inactive; Potency [2]: inconclusive: 2660 nM [cytotoxic, full curve, poor fit]

Question: For `CCCCC/C=C\CCC=O`, which Potency [2] is on record?
Answer: inconclusive: 21700 nM [cytotoxic, full curve, poor fit]

Question: What about the activity, negative = inhibition [3] of the same molecule?
Answer: inconclusive: -7.95%

Question: For `CC(=O)OC(C)=O`, which Potency [1] is on record?
Answer: inactive

Question: With `C=C[C@@H](C)CCC=C(C)C` as the molecule, how does the Potency [4] read?
Answer: inconclusive: 2.2 nM [rising, full curve, poor fit]

Question: What does the source list for `O=C(O)Cc1csc(-c2ccc(Cl)cc2)n1`?
Answer: Potency [4]: inconclusive: 841 nM [rising, partial curve, poor fit]; Potency [2]: inactive; Potency [5]: inconclusive: 8490 nM [rising, partial curve]; activity, negative = inhibition [3]: inconclusive: -8.35% [at 35.3 µM]

Question: Which Potency [2] does the source give for `Cn1c(=O)[nH]c2ncn(C)c2c1=O` here?
Answer: inactive

Question: Which Potency [4] does the source give for `N=C(N)c1ccccc1` here?
Answer: inconclusive: 686 nM [rising, partial curve]

Question: What about the Potency [6] of the same molecule?
Answer: inactive

Question: For `O=C1OC(=O)c2ccc3c4c(ccc1c24)C(=O)OC3=O`, which Potency [7] is on record?
Answer: inactive

Question: For `OCCCS`, which Potency [7] is on record?
Answer: inactive

Question: And the Potency [8]?
Answer: inactive

Question: And the activity, negative = inhibition [3]?
Answer: inconclusive: -0.777%

Question: What about the Potency [9] of the same molecule?
Answer: inactive

Question: For `O=C(Nc1cccc(C2=NCCN2)c1)Nc1cccc(C2=NCCN2)c1`, which Potency [10] is on record?
Answer: inactive

Question: And the Potency [11]?
Answer: inconclusive: 14600 nM [cytotoxic, single point]

Question: And the Potency [12]?
Answer: inactive

Question: With `CCOC(=O)c1cccnc1` as the molecule, how does the Potency [13] read?
Answer: inactive

Question: And the Potency [6]?
Answer: inactive
